Laboratory results: article PMC9621596

target: T1, LexA (Escherichia coli (ExPEC FY26?)) (UniProt B7NSK5); assay: EMSA; conditions: EMSA: 30 min at room temperature, binding buffer, salt and pH not given; 6% native PAGE in 0.5x TBE, 100 V, SYBR Gold stain
T1 sequence: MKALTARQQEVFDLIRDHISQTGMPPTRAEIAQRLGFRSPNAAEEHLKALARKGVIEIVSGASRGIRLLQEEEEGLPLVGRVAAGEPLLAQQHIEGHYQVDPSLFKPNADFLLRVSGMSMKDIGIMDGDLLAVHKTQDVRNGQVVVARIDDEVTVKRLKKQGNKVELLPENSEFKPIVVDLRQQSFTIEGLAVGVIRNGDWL

| Sequence | binding |
| --- | --- |
| AGCAACGGCTTTTCGTAATGATGGAGGCATTATTCACCTCTCGCAGCCTTGCGCTTATCTTCTTTAATCTTGAAATAAAGGTTTAACAAATAGGTCTTCAGGCCAAATACCAGGCTACCCAGCACACCTATTGCCGCCCACTGTGAGGGCGTGACTTTATCGAGCAACTGTAAAAACCAGTACCCGGCACTACCTGCTGA (double strand) [epel1 promoter, LexA box deleted (MutPepel1)] | no binding |
| GCTGATTTAATCGCACTCAGGCAAGCAGTCGTAGCTCTAATCAACTTGTTGCCGGAGAAGGAAAAGGAATTAGTTAGGGCAATTCTTATTAAAACTGCCGCCGATTTTTCATCATATCCACTGACAGATGACCTTGCGGACCTTCCTGAATTAATTGCAGCGTCCGCCATTAAGCTTACTGAAGAGATTTACCCTCCTCA (double strand) [epel2.1 promoter, LexA box deleted (MutPepel2.1)] | no binding |
| TCAGCAGGTAGTGCCGGGTACTGGTTTTTACAGTTGCTCGATAAAGTCACGCCCTCACAGTGGGCGGCAATAGGTGTGCTGGGTAGCCTGGTATTTGGCCTGCTGACGTACCTGACAAACCTTTATTTCAAGATTAAAGAAGATAAGCGCAAGGCTGCGAGAGGTGAATAATGCCTCCATCATTACGAAAAGCCGTTGCT (double strand) [epel1 promoter (Pepel1)] | binds |
| TGACCTGGACATCTCGCTGGACCGTGTTGAAGGTGCCGCGCTGGGGTTTTATGAGGCAGCAGCCAGAAGGAGCATCAGACAGGTCTTCAAGGATGAATTCGCGCGGTTATGTGAAGGGGATGAGCAGTCGCCGGAAAAGCGCCCCGTAATTTTAGAGGCGCAGAATGTGTGGATAACCTACAAAGGAAAGCTACCAGGAA (double strand) [epel2.2 promoter, LexA box deleted (MutPepel2.2)] | no binding |
| TGACCTGGACATCTCGCTGGACCGTGTTGAAGGTGCCGCGCTGGGGTTTTATGAGGCAGCAGCCAGAAGGAGCATCAGACAGGTCTTCCTGGATGTTGCTGCCGGGTTATGTGAAGGGGATGAGCAGTCGCCGGAAAAGCGCCCCGTAATTTTAGAGGCGCAGAATGTGTGGATAACCTACAAAGGAAAGCTACCAGGAA (double strand) [epel2.2 promoter (Pepel2.2)] | binds |
| TGAGGAGGGTAAATCTCTTCAGTAAGCTTAATGGCGGACGCTGCAATTAATTCAGGAAGGTCCGCAAGGTCATCTGTCAGTGGATATGATGAAAAATCGGCGGCAGTTCTGTTAAGAAGCGCTTTAACTAATTCCTTTTCCTTCTCCGGCAACAAGTTGATTAGAGCTACGACTGCTTGCCTGAGTGCGATTAAATCAGC (double strand) [epel2.1 promoter (Pepel2.1)] | binds |
